# Experimental data taken from the supplement of paper PMC8728848.
# The other results are listed elsewhere or left out.
# Key:
# Assay in all cases: glycan array binding signal (z-score within array); higher = stronger binding
# Details in all cases: glycan notation: IUPAC condensed, linker removed
# [1] = target: Neu5Ac(a2-3)Gal(b1-4)GlcNAc6S
# Outline: (§1)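 The Consortium for Functional Glycomics database supplied 3228 glycan arrays, of which those lacking an available protein sequence were dropped. The binding signal, a within-array Z-score, was averaged across arrays of the same protein sequence and across linkers. Negative scores can be read as non-binding.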
# [2] = target: Neu5Ac(a2-3)Gal(b1-4)[Fuc(a1-3)]GlcNAc
# Outline: as §1
# [3] = target: Neu5Ac(a2-3)Gal(b1-4)[Fuc(a1-3)]GlcNAc(b1-3)Gal
# Outline: as §1
# [4] = target: Neu5Ac(a2-3)Gal(b1-4)[Fuc(a1-3)]GlcNAc(b1-3)Gal(b1-4)GlcNAc
# Outline: as §1
# [5] = target: Neu5Ac(a2-3)Gal(b1-4)[Fuc(a1-3)]GlcNAc(b1-3)Gal(b1-4)[Fuc(a1-3)]GlcNAc(b1-3)Gal(b1-4)[Fuc(a1-3)]GlcNAc
# Outline: as §1
# [6] = target: Neu5Ac(a2-3)Gal(b1-4)[Fuc(a1-3)]GlcNAc(b1-6)[Gal(b1-3)]GalNAc
# Outline: as §1
# [7] = target: Neu5Ac(a2-3)Gal(b1-4)[Fuc(a1-3)]GlcNAc6S
# Outline: as §1
# [8] = target: Neu5Ac(a2-3)Gal6S(b1-4)GlcNAc
# Outline: as §1
# [9] = target: Neu5Ac(a2-3)Gal6S(b1-4)[Fuc(a1-3)]GlcNAc
# Outline: as §1
# [10] = target: Neu5Ac(a2-3)GalNAc
# Outline: as §1
# [11] = target: Neu5Ac(a2-3)GalNAc(b1-4)GlcNAc
# Outline: as §1
# [12] = target: Neu5Ac(a2-3)[GalNAc(b1-4)]Gal(b1-4)Glc
# Outline: as §1
# [13] = target: Neu5Ac(a2-3)[GalNAc(b1-4)]Gal(b1-4)GlcNAc
# Outline: as §1
# [14] = target: Neu5Ac(a2-3)[Neu5Ac(a2-6)]GalNAc
# Outline: as §1
# [15] = target: Neu5Ac(a2-6)Gal
# Outline: as §1
# [16] = target: Neu5Ac(a2-6)Gal(b1-4)Glc
# Outline: as §1
# [17] = target: Neu5Ac(a2-6)Gal(b1-4)GlcNAc
# Outline: as §1
# [18] = target: Neu5Ac(a2-6)Gal(b1-4)GlcNAc(b1-2)Man(a1-3)[Gal(b1-4)GlcNAc(b1-2)Man(a1-6)]Man(b1-4)GlcNAc(b1-4)GlcNAc
# Outline: as §1
# [19] = target: Neu5Ac(a2-6)Gal(b1-4)GlcNAc(b1-2)Man(a1-3)[GlcNAc(b1-2)Man(a1-6)]Man(b1-4)GlcNAc(b1-4)GlcNAc
# Outline: as §1
# [20] = target: Neu5Ac(a2-6)Gal(b1-4)GlcNAc(b1-2)Man(a1-3)[GlcNAc(b1-2)Man(b1-4)GlcNAc(b1-2)Man(a1-6)]Man(b1-4)GlcNAc(b1-4)GlcNAc
# Outline: as §1
# [21] = target: Neu5Ac(a2-6)Gal(b1-4)GlcNAc(b1-2)Man(a1-3)[Neu5Ac(a2-6)Gal(b1-4)GlcNAc(b1-2)Man(a1-6)]Man(b1-4)GlcNAc(b1-4)GlcNAc
# Outline: as §1
# [22] = target: Neu5Ac(a2-6)Gal(b1-4)GlcNAc(b1-2)Man(a1-6)[Gal(b1-4)GlcNAc(b1-2)Man(a1-3)]Man(b1-4)GlcNAc(b1-4)GlcNAc
# Outline: as §1
# [23] = target: Neu5Ac(a2-6)Gal(b1-4)GlcNAc(b1-2)Man(a1-6)[GlcNAc(b1-2)Man(a1-3)]Man(b1-4)GlcNAc(b1-4)GlcNAc
# Outline: as §1
# [24] = target: Neu5Ac(a2-6)Gal(b1-4)GlcNAc(b1-3)Gal(b1-4)GlcNAc
# Outline: as §1
# [25] = target: Neu5Ac(a2-6)Gal(b1-4)GlcNAc(b1-3)Gal(b1-4)[Fuc(a1-3)]GlcNAc(b1-3)Gal(b1-4)[Fuc(a1-3)]GlcNAc
# Outline: as §1
# [26] = target: Neu5Ac(a2-6)Gal(b1-4)GlcNAc6S
# Outline: as §1
# [27] = target: Neu5Ac(a2-6)GalNAc
# Outline: as §1
# [28] = target: Neu5Ac(a2-6)GalNAc(b1-4)GlcNAc
# Outline: as §1
# [29] = target: Neu5Ac(a2-8)Neu5Ac
# Outline: as §1
# [30] = target: Neu5Ac(a2-8)Neu5Ac(a2-3)Gal(b1-4)Glc
# Outline: as §1
# [31] = target: Neu5Ac(a2-8)Neu5Ac(a2-3)[GalNAc(b1-4)]Gal(b1-4)Glc
# Outline: as §1
# [32] = target: Neu5Ac(a2-8)Neu5Ac(a2-8)Neu5Ac
# Outline: as §1
# [33] = target: Neu5Ac(a2-8)Neu5Ac(a2-8)Neu5Ac(a2-3)Gal(b1-4)Glc
# Outline: as §1
# [34] = target: Neu5Ac(a2-8)Neu5Ac(a2-8)Neu5Ac(a2-3)[GalNAc(b1-4)]Gal(b1-4)Glc
# Outline: as §1
# [35] = target: Neu5Ac(a2-8)Neu5Ac(a2-8)Neu5Ac(a2-8)Neu5Ac(a2-3)[GalNAc(b1-4)]Gal(b1-4)Glc
# Outline: as §1
# [36] = target: Neu5Ac(b1-6)GalNAc
# Outline: as §1
# [37] = target: Neu5Ac(b2-6)Gal(b1-4)GlcNAc
# Outline: as §1
# [38] = target: Neu5Ac(b2-6)GalNAc
# Outline: as §1
# [39] = target: Neu5Ac9Ac(a2-6)Gal(b1-4)GlcNAc
# Outline: as §1
# [40] = target: Neu5Gc(a2-3)Gal(b1-3)GlcNAc
# Outline: as §1
# [41] = target: Neu5Gc(a2-3)Gal(b1-3)[Fuc(a1-4)]GlcNAc
# Outline: as §1
# [42] = target: Neu5Gc(a2-3)Gal(b1-4)Glc
# Outline: as §1
# [43] = target: Neu5Gc(a2-3)Gal(b1-4)GlcNAc
# Outline: as §1
# [44] = target: Neu5Gc(a2-3)Gal(b1-4)[Fuc(a1-3)]GlcNAc
# Outline: as §1
# [45] = target: Neu5Gc(a2-6)Gal(b1-4)GlcNAc
# Outline: as §1
# [46] = target: Neu5Gc(a2-6)GalNAc
# Outline: as §1
# [47] = target: Neu5Gc(b2-6)Gal(b1-4)GlcNAc
# Outline: as §1
binder,measurement,setting,value
"P-Selectin (Mus musculus), Q01102 (protein) MAGCPKGSWTPRLRSVILGGAQLIWFSALISELVNQKEVAAWTYNYSTKAYSWNNSRVFCRRHFTDLVAIQNKNEIAHLNDVIPFFNSYYWIGIRKINNKWTWVGTNKTLTEEAENWADNEPNNKKNNQDCVEIYIKSNSAPGKWNDEPCFKRKRALCYTASCQDMSCSNQGECIETIGSYTCSCYPGFYGPECEYVKECGKVNIPQHVLMNCSHPLGEFSFNSQCTFSCAEGYELDGPGELQCLASGIWTNNPPKCDAVQCQSLEAPPHGTMACMHPIAAFAYDSSCKFECQPGYRARGSNTLHCTGSGQWSEPLPTCEAIACEPPEIPIHGSMDCVPSTGTFGYNSSCTFLCAEGFVLKGNDAIQCADSGQWTAPAPFCEALQCPEFPVPSKAQVNCSDPFGTLTYQSVCSFSCDEGSLLVGASVIRCLATGHWNGAPPECQAVSCAPMLSPENGSMTCVQPLGNSTYKSTCQFMCDEGFYLSGPERLDCSPSGHWTGTPPTCEAIKCPGIFAPEQGNLDCSHVHGEFGVGSICHFSCNEDFELLGSENVECTVSGRWSAPPPTCKGITSLPAPAVRCPALTTPGQGTMSCQHHLGSFGPNTTCYFGCKTGFTLRGANSLRCRASGQWTAVTPMCRAVKCSELHMDTAVAMNCSNPWGNFSYGSTCTFQCPEGQSLNGSVRATCREDGHWSDAMPTCQAGTLTIQEALTYLGGAVASTTGLAVGGTLLALLRKRLRKKDDGKCPLNPHSHLGTYGVFTNAAYDPTP",glycan array binding signal (z-score),[1],0.918
same,glycan array binding signal (z-score),[2],3.21
same,glycan array binding signal (z-score),[3],2.4
same,glycan array binding signal (z-score),[4],1.85
same,glycan array binding signal (z-score),[5],0.401
same,glycan array binding signal (z-score),[6],1.67
same,glycan array binding signal (z-score),[7],3.56
same,glycan array binding signal (z-score),[8],-0.056
same,glycan array binding signal (z-score),[9],0.042
same,glycan array binding signal (z-score),[10],-0.381
same,glycan array binding signal (z-score),[11],-0.467
same,glycan array binding signal (z-score),[12],-0.331
same,glycan array binding signal (z-score),[13],-0.149
same,glycan array binding signal (z-score),[14],0.023
same,glycan array binding signal (z-score),[15],-0.299
same,glycan array binding signal (z-score),[16],-0.31
same,glycan array binding signal (z-score),[17],-0.451
same,glycan array binding signal (z-score),[18],-0.298
same,glycan array binding signal (z-score),[19],-0.248
same,glycan array binding signal (z-score),[20],-0.268
same,glycan array binding signal (z-score),[21],-0.116
same,glycan array binding signal (z-score),[22],-0.293
same,glycan array binding signal (z-score),[23],-0.311
same,glycan array binding signal (z-score),[24],-0.535
same,glycan array binding signal (z-score),[25],0.242
same,glycan array binding signal (z-score),[26],0.597
same,glycan array binding signal (z-score),[27],-0.339
same,glycan array binding signal (z-score),[28],-0.307
same,glycan array binding signal (z-score),[29],-0.254
same,glycan array binding signal (z-score),[30],-0.183
same,glycan array binding signal (z-score),[31],-0.223
same,glycan array binding signal (z-score),[32],-0.086
same,glycan array binding signal (z-score),[33],-0.297
same,glycan array binding signal (z-score),[34],-0.21
same,glycan array binding signal (z-score),[35],-0.517
same,glycan array binding signal (z-score),[36],0.027
same,glycan array binding signal (z-score),[37],-0.327
same,glycan array binding signal (z-score),[38],-0.354
same,glycan array binding signal (z-score),[39],-0.188
same,glycan array binding signal (z-score),[40],-0.17
same,glycan array binding signal (z-score),[41],3.75
same,glycan array binding signal (z-score),[42],-0.329
same,glycan array binding signal (z-score),[43],-0.056
same,glycan array binding signal (z-score),[44],3.15
same,glycan array binding signal (z-score),[45],-0.179
same,glycan array binding signal (z-score),[46],-0.384
same,glycan array binding signal (z-score),[47],-0.329
